We go through 55 molecules from article PMC4336329 (PLoS ONE, 2015).

About 14,000 (4.5%) of roughly 310,000 compounds showed an effect of 50% or more. Effects have a minus sign here. Some of the results follow.
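Note: peak tail current of the secondary pulse compared with the same well before compound.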

The target in the experiment is human ether-à-go-go-related gene (hERG) potassium channel (human, UniProt Q12809). Description: primary screen, population patch clamp on CHO cells stably expressing hERG.
human ether-à-go-go-related gene (hERG) potassium channel, sequence (Q12809 whole entry, looked up): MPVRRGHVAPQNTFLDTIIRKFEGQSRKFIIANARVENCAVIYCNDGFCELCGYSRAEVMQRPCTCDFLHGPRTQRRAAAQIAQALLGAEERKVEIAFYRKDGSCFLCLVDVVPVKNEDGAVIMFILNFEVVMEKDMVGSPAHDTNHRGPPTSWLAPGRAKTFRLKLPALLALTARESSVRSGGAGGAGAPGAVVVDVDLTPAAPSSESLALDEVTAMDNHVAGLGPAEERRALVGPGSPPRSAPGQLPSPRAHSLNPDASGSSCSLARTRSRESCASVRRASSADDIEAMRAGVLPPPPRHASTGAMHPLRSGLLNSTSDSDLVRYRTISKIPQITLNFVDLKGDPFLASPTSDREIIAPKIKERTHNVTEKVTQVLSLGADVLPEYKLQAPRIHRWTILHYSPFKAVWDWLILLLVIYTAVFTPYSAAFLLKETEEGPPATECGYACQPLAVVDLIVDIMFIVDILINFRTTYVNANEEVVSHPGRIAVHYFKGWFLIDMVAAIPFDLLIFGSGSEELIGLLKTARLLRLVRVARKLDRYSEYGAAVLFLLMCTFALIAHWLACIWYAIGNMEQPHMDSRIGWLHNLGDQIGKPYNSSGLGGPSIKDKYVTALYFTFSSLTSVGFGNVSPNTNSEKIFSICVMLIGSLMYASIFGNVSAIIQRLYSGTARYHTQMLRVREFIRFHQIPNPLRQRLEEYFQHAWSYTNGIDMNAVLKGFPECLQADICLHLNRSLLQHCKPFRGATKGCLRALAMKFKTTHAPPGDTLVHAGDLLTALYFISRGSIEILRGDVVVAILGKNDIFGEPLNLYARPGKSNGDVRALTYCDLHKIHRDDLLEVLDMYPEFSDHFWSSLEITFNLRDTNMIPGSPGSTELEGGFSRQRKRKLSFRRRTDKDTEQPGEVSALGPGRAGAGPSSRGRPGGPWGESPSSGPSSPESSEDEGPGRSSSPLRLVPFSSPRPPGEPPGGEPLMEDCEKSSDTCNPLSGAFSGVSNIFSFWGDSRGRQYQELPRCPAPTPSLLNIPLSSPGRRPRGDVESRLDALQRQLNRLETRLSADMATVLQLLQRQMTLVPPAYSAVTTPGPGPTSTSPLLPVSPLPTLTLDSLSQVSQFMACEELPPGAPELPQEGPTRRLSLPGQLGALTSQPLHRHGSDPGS
Consider `O=S1(=O)N=C2CCCN2C(c2ccc(F)cc2)N1` (stereo not shown), for which the “hERG current change (%, negative = inhibition) at 10uM” value is on record as -1.65%.

Take `O=C(Nc1cc([N+](=O)[O-])ccc1Cl)C(Sc1ccccc1)c1ccccc1` (stereo not shown): the “hERG current change (%, negative = inhibition) at 10uM” value was determined as 4.8%.

With `CC(C)(C)C(=O)NC(=S)Nc1ccccc1C(N)=O`, the “hERG current change (%, negative = inhibition) at 10uM” value came out at 5.4%.

In the case of `CC1(C)C2CC=C(/C=N/NC(=S)Nc3cccnc3)C1C2` (stereo not shown), the “hERG current change (%, negative = inhibition) at 10uM” value is 16.7%.

Consider `O=S1(=O)NC(=NCC(c2ccco2)N2CCCCC2)c2ccccc21` (stereo not shown), for which the “hERG current change (%, negative = inhibition) at 10uM” value is listed as 8.31%.

Regarding `CCOc1cc(C#N)ccc1OCC(=O)N1CCc2ccccc2C1`, the “hERG current change (%, negative = inhibition) at 10uM” value is recorded as -40.7%.

In the case of `CCO/C=C1\C(=O)N(c2ccccc2)C(=O)c2ccccc21`, the “hERG current change (%, negative = inhibition) at 10uM” value amounted to 19.2%.

For the molecule `CCn1c(=O)cc(OCC(=O)N2CCN(Cc3ccc4c(c3)OCO4)CC2)c2ccccc21`, the “hERG current change (%, negative = inhibition) at 10uM” value was -17.9%.

As to `Cc1ccc(NC(=O)CS(=O)CC(=O)N(c2ccccc2)C(C)C(=O)NC2CCCC2)cc1` (stereo not shown), the “hERG current change (%, negative = inhibition) at 10uM” value is on record as -24%.

On to `CC(C)CN1CCN(Cc2ccc(C#CC(C)(C)O)cc2)CC1CCO` (stereo not shown), for which the “hERG current change (%, negative = inhibition) at 10uM” value came out at 8.57%.

As for `Cc1cc(NS(=O)(=O)c2ccc(NC(=O)COc3ccccc3[N+](=O)[O-])cc2)no1`, the “hERG current change (%, negative = inhibition) at 10uM” value is -1.65%.

With `Cn1c(SCC(=O)Nc2ccc3[nH]c(=O)[nH]c3c2)nnc1-c1ccccc1`, the “hERG current change (%, negative = inhibition) at 10uM” value was 14.3%.

On to `COc1ccc(C2=Nn3c(nnc3-c3cccnc3)SC2)cc1OC`, for which the “hERG current change (%, negative = inhibition) at 10uM” value is reported as -61.8%.

On to `CCN(C(=O)c1cccnc1)c1ccccc1`, for which the “hERG current change (%, negative = inhibition) at 10uM” value was found to be 4.13%.

Take `Cc1onc(C(=O)Nc2c(C)n(C)n(-c3ccccc3)c2=O)c1[N+](=O)[O-]`: the “hERG current change (%, negative = inhibition) at 10uM” value stood at 1.51%.

With `O=C(CN1C(=O)c2ccc([N+](=O)[O-])cc2C1=O)NC1CCS(=O)(=O)C1` (stereo not shown), the “hERG current change (%, negative = inhibition) at 10uM” value is -2.95%.

In the case of `Cc1ccccc1NC(=S)NCc1ccco1`, the “hERG current change (%, negative = inhibition) at 10uM” value is given as 6.52%.

`COc1ccc(-c2noc(CN3CCCC(OCc4ccccn4)C3)n2)cc1` (stereo not shown): the “hERG current change (%, negative = inhibition) at 10uM” value is -1.84%.

Consider `O=C(NCc1ccco1)C1CCC(N2C(=O)C3C4CCC(C4)C3C2=O)CC1` (stereo not shown), for which the “hERG current change (%, negative = inhibition) at 10uM” value is given as 16.7%.

For the molecule `NC(=O)CCn1c(C(=O)c2cccc([N+](=O)[O-])c2)c2ccccc2[n+]1[O-]`, the “hERG current change (%, negative = inhibition) at 10uM” value was determined as 4.25%.

In the case of `O=c1[nH]c(=S)n(Cc2ccc(F)cc2)c(O)c1C=NCCCn1ccnc1`, the “hERG current change (%, negative = inhibition) at 10uM” value is reported as -60.3%.

Take `C=CCNc1nc(C(=O)OCC(=O)Nc2ccc(S(N)(=O)=O)cc2)cs1`: the “hERG current change (%, negative = inhibition) at 10uM” value is given as -1.3%.

Consider `Cc1ccc(N/C=C(\C2OC(=O)c3ccccc32)[N+](=O)[O-])c(C)c1` (stereo not shown), for which the “hERG current change (%, negative = inhibition) at 10uM” value is 23%.

Consider `Cc1cc(N2C(=O)C(O)=C(C(=O)c3ccco3)C2c2ccccc2F)no1` (stereo not shown), for which the “hERG current change (%, negative = inhibition) at 10uM” value was 13.8%.

On to `CCOC(=O)c1ccc(NC(=O)c2ccc(OC(C)C)c(OC)c2)cc1`, for which the “hERG current change (%, negative = inhibition) at 10uM” value is listed as -3.47%.

In the case of `COc1ccccc1/C=C\C=N\n1c(-c2ccc(Cl)cc2)n[nH]c1=S`, the “hERG current change (%, negative = inhibition) at 10uM” value amounted to 14.3%.

Regarding `CC(=O)c1ccc(OCC(O)CN(C)CCOc2ccc(Br)cc2)cc1` (stereo not shown), the “hERG current change (%, negative = inhibition) at 10uM” value is reported as 23.4%.

Regarding `CCOC(=O)N1CCN(C(=O)Nc2ccc(NC(=O)N3CCN(C(=O)OCC)CC3)cc2)CC1`, the “hERG current change (%, negative = inhibition) at 10uM” value was 17.8%.

Regarding `COC(=O)[C@H](C)NC(=O)/C=C/c1ccc(OC)cc1`, the “hERG current change (%, negative = inhibition) at 10uM” value is -12.7%.

`CC(SCc1nc2sc3c(c2c(=O)[nH]1)CCCC3)C(=O)Nc1ccccn1` (stereo not shown): the “hERG current change (%, negative = inhibition) at 10uM” value is on record as -6.8%.

`CCOc1ccc(CN2C(=O)c3ccccc3C2C(=O)NCC2CCCO2)cc1` (stereo not shown): the “hERG current change (%, negative = inhibition) at 10uM” value came to 4.63%.

As to `Oc1ccc(-c2cn3ccccc3n2)cc1O`, the “hERG current change (%, negative = inhibition) at 10uM” value was 5.1%.

On to `Cc1ncoc1C(=O)Nc1ccccc1-c1ccccc1`, for which the “hERG current change (%, negative = inhibition) at 10uM” value is given as -8.12%.

Consider `CCOC(=O)N1CCN(C(=O)c2ccc3c(=O)n(-c4ccccc4F)c(=S)[nH]c3c2)CC1`, for which the “hERG current change (%, negative = inhibition) at 10uM” value turned out to be 22.3%.

On to `Cc1onc(-c2ccccc2)c1C(=O)NNC(=S)NC(=O)c1ccc(F)cc1`, for which the “hERG current change (%, negative = inhibition) at 10uM” value is listed as 22.8%.

Regarding `CC1(C)C(/C=C/C=C/C=C/C=C2\N(CCCCS(=O)(=O)[O-])c3ccc4ccccc4c3C2(C)C)=[N+](CCCCS(=O)(=O)[O-])c2ccc3ccccc3c21.[Na+]`, the “hERG current change (%, negative = inhibition) at 10uM” value was -15.5%.

Regarding `C=CCn1c(Cc2cccs2)nnc1SCC(=O)Nc1ccc(OC)c(OC)c1`, the “hERG current change (%, negative = inhibition) at 10uM” value is given as -0.0755%.

As for `O=C(Cn1c(=O)sc2ccccc21)Nc1ccc(S(=O)(=O)N2CCCCC2)cc1`, the “hERG current change (%, negative = inhibition) at 10uM” value was -13.2%.

Regarding `CC1CCN(C(=O)CSc2nnc(-c3cccnc3)n2C2CCCCC2)CC1`, the “hERG current change (%, negative = inhibition) at 10uM” value is -5.87%.

Consider `Cc1ccc(NC(=O)COC(=O)c2ccc3c(c2)OCO3)cc1S(=O)(=O)N1CCCCC1`, for which the “hERG current change (%, negative = inhibition) at 10uM” value is -3.06%.

In the case of `O=C(NCC1CCCN1S(=O)(=O)c1cccs1)C(=O)Nc1ccccc1Cl` (stereo not shown), the “hERG current change (%, negative = inhibition) at 10uM” value was -13.7%.

For `CCNC(=S)Nc1cc(C)ccn1`, the “hERG current change (%, negative = inhibition) at 10uM” value amounted to 13.6%.

`Cc1cn(C2CC3OCC3O2)c(=O)[nH]c1=O` (stereo not shown): the “hERG current change (%, negative = inhibition) at 10uM” value came to 8.55%.

`CC(=O)Nc1ccc(S(=O)(=O)Nc2ccc(N3CCOCC3)cc2)cc1`: the “hERG current change (%, negative = inhibition) at 10uM” value is reported as 6.22%.

Consider `CCc1c(C)nc(N)nc1N1N=C1SCC(=O)OC`, for which the “hERG current change (%, negative = inhibition) at 10uM” value is reported as -0.87%.

Regarding `CC(C)CC(=O)NC(=S)Nc1ccccc1C(=O)Nc1ccccc1`, the “hERG current change (%, negative = inhibition) at 10uM” value is recorded as 8.01%.

Consider `C/C(=N/NC(=O)c1ccc(-c2ccccc2)cc1)c1cccc(O)c1`, for which the “hERG current change (%, negative = inhibition) at 10uM” value is 11%.

As to `CC(=O)Nc1ccc(NC(=O)C2CCN(C(=O)C3CC(=O)N(c4ccc(C)cc4)C3)CC2)cc1` (stereo not shown), the “hERG current change (%, negative = inhibition) at 10uM” value was 12.4%.

On to `COc1ccc(N2CCN(CCCNC(=O)c3ccc(CS(=O)(=O)c4ccc(Cl)cc4)o3)CC2)cc1`, for which the “hERG current change (%, negative = inhibition) at 10uM” value is -77.1%.

As to `Cc1cc(C)n(C(C[N+](=O)[O-])c2ccc(Cl)cc2)n1` (stereo not shown), the “hERG current change (%, negative = inhibition) at 10uM” value is -20.4%.

For `COCC1CCCN(C(=O)c2cc(COc3ccc4ncccc4c3)on2)C1` (stereo not shown), the “hERG current change (%, negative = inhibition) at 10uM” value is on record as 7.8%.

On to `CC(=O)Nc1nonc1-c1nc2ccccc2n1N(C(C)=O)C(C)=O`, for which the “hERG current change (%, negative = inhibition) at 10uM” value is recorded as 11.9%.

With `Cc1cccc(C)c1NC(=S)N(Cc1cccs1)C1CCCC1`, the “hERG current change (%, negative = inhibition) at 10uM” value is given as 4.16%.

As to `COc1ccc(S(=O)(=O)N(C)C)cc1NC(=O)CCNC(=O)c1ccco1`, the “hERG current change (%, negative = inhibition) at 10uM” value was found to be 16%.

For the molecule `COc1ccc(NC2CC(=O)N(c3ccccc3)C2=O)cc1` (stereo not shown), the “hERG current change (%, negative = inhibition) at 10uM” value is given as -2.95%.
